Laboratory results as given in article PMC4336329 (PLoS ONE, 2015).
Out of some 310,000 compounds screened, about 14,000 (4.5%) showed an effect of 50% or more. The effect is printed as a negative number. This is one part of the list.

These compounds were tested against human ether-à-go-go-related gene (hERG) potassium channel (human, UniProt Q12809) (assay: primary screen, population patch clamp on CHO cells stably expressing hERG).
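Further: peak tail current of the secondary pulse compared with the same well before compound.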

human ether-à-go-go-related gene (hERG) potassium channel, sequence (Q12809 whole entry, looked up): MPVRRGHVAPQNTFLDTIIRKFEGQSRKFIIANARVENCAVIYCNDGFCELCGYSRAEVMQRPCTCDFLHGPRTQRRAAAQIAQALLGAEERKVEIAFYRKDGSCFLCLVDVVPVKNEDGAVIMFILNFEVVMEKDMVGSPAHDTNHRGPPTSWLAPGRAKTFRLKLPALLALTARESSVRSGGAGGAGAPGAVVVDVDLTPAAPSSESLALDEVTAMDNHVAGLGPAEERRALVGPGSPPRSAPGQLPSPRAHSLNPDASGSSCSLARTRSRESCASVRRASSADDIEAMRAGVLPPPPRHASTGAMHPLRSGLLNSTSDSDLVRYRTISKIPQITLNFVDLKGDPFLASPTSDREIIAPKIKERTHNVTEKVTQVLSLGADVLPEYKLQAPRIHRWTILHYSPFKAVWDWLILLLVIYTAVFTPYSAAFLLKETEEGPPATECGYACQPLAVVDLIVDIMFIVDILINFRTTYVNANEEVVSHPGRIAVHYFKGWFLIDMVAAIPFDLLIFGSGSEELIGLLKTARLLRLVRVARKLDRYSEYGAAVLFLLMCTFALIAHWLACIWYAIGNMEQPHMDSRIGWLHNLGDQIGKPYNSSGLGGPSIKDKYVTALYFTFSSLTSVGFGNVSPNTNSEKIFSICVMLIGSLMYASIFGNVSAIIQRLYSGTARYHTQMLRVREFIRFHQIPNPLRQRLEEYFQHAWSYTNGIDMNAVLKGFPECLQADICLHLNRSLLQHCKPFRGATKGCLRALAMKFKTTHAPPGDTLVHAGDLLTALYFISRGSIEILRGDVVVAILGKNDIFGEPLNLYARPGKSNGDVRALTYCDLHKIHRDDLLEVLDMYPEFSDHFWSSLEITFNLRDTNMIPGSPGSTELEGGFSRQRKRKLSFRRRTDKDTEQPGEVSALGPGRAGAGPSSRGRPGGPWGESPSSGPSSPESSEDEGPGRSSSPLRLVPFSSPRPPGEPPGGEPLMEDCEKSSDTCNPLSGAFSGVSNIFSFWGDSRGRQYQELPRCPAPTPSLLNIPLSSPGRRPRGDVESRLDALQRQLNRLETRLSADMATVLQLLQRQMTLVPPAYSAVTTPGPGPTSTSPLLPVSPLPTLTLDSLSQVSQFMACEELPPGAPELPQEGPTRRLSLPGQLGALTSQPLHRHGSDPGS

SMILES	hERG current change (%, negative = inhibition) at 10uM [%]
CCOC(=O)N1CCN(C(=O)c2ccc3c(c2)sc2nc(-c4ccc(OC)cc4)cn23)CC1	-20.4
COc1ccc(C2CC(=O)C3=C(C2)Nc2ccccc2NC3c2coc3ccccc3c2=O)cc1OC (stereo not drawn)	7.3
CCc1nnc(NC(=O)CN2C(=O)c3ccccc3C2=O)s1	5.27
O=C(O)C1CCN(C(=O)CSc2nc3ccccc3c(=O)n2Cc2ccccc2)CC1	1.51
Cn1nc(C(=O)N2CCOCC2)c2ccccc2c1=O	8.42
CN1CCN(C(=O)CN(C)S(=O)(=O)c2cc(Cl)ccc2Cl)CC1	4.23
CC(=O)NC(c1cc(Cl)c2ccccc2c1O)C(C)C (stereo not drawn)	-7.33
CCOCCOc1cccc(C(=O)NC(C)c2ccc3ccccc3c2)c1 (stereo not drawn)	16.4
CCOCCCN=Cc1c(O)n(Cc2ccccc2)c(=O)[nH]c1=O	-4.85
S=C(Nc1ccc(Cl)c(Cl)c1)NN1CCOCC1	7.13
Cc1ccc(C)c(S(=O)(=O)Nc2ccc(C(=O)NCCc3ccccn3)cc2)c1	10.2
Cc1cc(C)c2c(c1)/C(=N/NC(=O)c1ccc(O)cc1)CCC2	13.8
CC(C)(CN1CCN(Cc2ccccc2)CC1)NS(=O)(=O)c1ccccc1	-39.6
O=C(CNC(=O)C1COc2ccccc2O1)N/N=C\c1ccccc1Cl (stereo not drawn)	4.64
O=C(CCCOc1ccccc1)N1CCN(S(=O)(=O)c2ccccc2)CC1	-4.56
O=C(CSC(=S)N1CCCC1)NCC(=O)Nc1ccc(F)c(F)c1	3.96
CC1CN(c2nc3ccccc3nc2C(C#N)C(=O)NC2CCCCC2)CC(C)O1 (stereo not drawn)	3.43
Cc1ccccc1-n1ccnc1SCC(=O)NC1CCCC1	4.38
C=CCN1CN(S(=O)(=O)c2cccs2)c2nc3ccccc3nc21	-13.4

SMILES	hERG current change (%, negative = inhibition) at 10uM [%]
CCCCc1nc2sc3c(=O)n(N)cnc3c2c2c1CCCC2	10.4
COc1ccc(C2=C(C)CC(C)(C)NC2=O)cc1OC	21.8
O=C1c2nccnc2C(=O)N1c1ccc(F)cc1	15.4
N#CCSc1nc(-c2ccccc2)cs1	3.49
CCc1ccc(-c2ccc(C(=O)C(F)(F)F)[nH]2)cc1	9.61
COC(=O)CNC(=S)NC(=O)c1ccc(C(C)(C)C)cc1	-22.3
Cc1ccc(Cl)cc1NC(=O)CN1CCN(S(=O)(=O)N2CCOCC2)CC1	-64.3
COc1ccc(CCN2C(=NC(=O)C(C)C)SC3CS(=O)(=O)CC32)cc1OC (stereo not drawn)	1.39
CCOc1cc2[nH]c(=O)n(CCc3ccc(OC)c(OC)c3)c(=O)c2cc1OCC	18.5
CCOC(=O)c1[nH]c2ccccc2c1NC(=O)c1cc(OC)c(OC)c(OC)c1	-8.76
COc1ccc(NC(=O)c2cc(-c3cc(C)ccc3O)n[nH]2)cc1Cl	-8.07
Cc1cc(C)c(C#N)c(SCc2cc3c(cc2Cl)OCO3)n1	4.96
Cc1cnn2c(C3CC3)ccnc12	4.03
O=c1cc(N=Nc2ccc(Cl)cc2)[nH]c(=O)[nH]1	9.49
O=C/C(=C\Nc1ccc(S(=O)(=O)CCO)cc1)c1nc2cc(Cl)ccc2o1	-38.2
COc1cccc(CNC(=O)Cn2nc(-c3ccc(Cl)cc3)ccc2=O)c1	-44.8
Cc1cc(C(=O)COC(=O)CC2Sc3ccccc3NC2=O)c(C)n1-c1ccccc1 (stereo not drawn)	28
O=C(C1CCC1)N1CCN(c2ccccc2)CC1	13.6
CC(=O)c1ccc(N(C(=O)CS(=O)CC(=O)Nc2ccc(F)cc2)C(C(=O)NC2CCCCC2)c2cccs2)cc1 (stereo not drawn)	13.1

SMILES	hERG current change (%, negative = inhibition) at 10uM [%]
CSc1ccc(/C=C/C(=O)OCC(=O)NCC2CCCO2)cc1 (stereo not drawn)	6.36
Cc1ccc(-n2nc3ccc(N)cc3n2)cc1Cl	34.5
Cc1ccc(NC2=C(NCCO)C(=O)c3ccccc3C2=O)cc1	-9.55
Nc1cc(C(F)(F)F)cc([N+](=O)[O-])c1N	5.85
COC(=O)c1ccc(Cn2nnc3c(=O)[nH]c(C4CCN(S(=O)(=O)c5ccc(F)cc5)CC4)nc32)cc1	-70.3
Cn1c(C=O)c(C#Cc2ccccc2)c2ccccc21	3.31
O=C(CN1C(=O)/C(=C/c2cccc(Cl)c2)SC1=S)NC1C=CS(=O)(=O)C1 (stereo not drawn)	7.97
CCCOC(=O)c1ccc(-[n+]2c(-c3ccccc3)cc(-c3ccccc3)cc2-c2ccccc2)cc1.[O-][Cl+3]([O-])([O-])[O-]	-77.2
CCCCCCNC(=O)CCNS(=O)(=O)c1ccc(C)cc1	-12.8
CC1CC(C)CN(CCCNC(=O)C2CCN(c3ncnc4c3sc3cccc(F)c34)CC2)C1 (stereo not drawn)	-65.8
NS(=O)(=O)c1ccc(NC(=O)COC(=O)CCc2c[nH]c3ccccc23)cc1	22
C=CCn1c(SCC(=O)Nc2cccnc2Cl)nnc1-c1ccccc1F	-15.5
Cc1nc2ccccc2n1-c1ccccc1	-10.2
CC1(CCC#N)N=C(SCCC#N)N(c2ccccc2)C1=O (stereo not drawn)	2.7
CC(=O)OC(C(=O)NC1CCCCC1)c1cccc(F)c1 (stereo not drawn)	16.5
O=C(CSc1cn(CCNC(=O)c2cccs2)c2ccccc12)NCC1CCCO1 (stereo not drawn)	-17.9
O=C(NC1CCN(S(=O)(=O)c2ccccc2)CC1)c1ccccc1	5.3
CC(NS(=O)(=O)c1ccc(Cl)cc1)C(=O)N1CCOCC1 (stereo not drawn)	6.2
COc1ccc(OC)c(-c2nc(CN3CCN(C(=O)c4ccco4)CC3)c(C)o2)c1	-21.9
